# Results: the supplement of paper PMC8728848
# The list shows a part of the results.
# What was measured:
# Assay in all cases: glycan array binding signal (z-score within array); higher = stronger binding
# Settings in all cases: glycan notation: IUPAC condensed, linker removed
# [1] = target: Gal(b1-4)GlcNAc(a1-6)Gal(b1-4)GlcNAc
# Procedure, shortened: (§1)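 Columns mapping to the same glycan were averaged after glycan names were converted to IUPAC-condensed notation. The data come from 3228 arrays in the Consortium for Functional Glycomics database, limited to those with an available protein sequence. Binding is reported as a within-array Z-score averaged across arrays of one protein sequence and across linkers.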
# [2] = target: Gal(b1-4)GlcNAc(b1-2)Man(a1-3)Man(b1-4)GlcNAc(b1-4)GlcNAc
# Procedure, shortened: as §1
# [3] = target: Gal(b1-4)GlcNAc(b1-2)Man(a1-3)[Gal(b1-4)GlcNAc(b1-2)Man(a1-6)]Man(b1-4)GlcNAc(b1-4)GlcNAc
# Procedure, shortened: as §1
# [4] = target: Gal(b1-4)GlcNAc(b1-2)Man(a1-3)[Gal(b1-4)GlcNAc(b1-2)Man(a1-6)]Man(b1-4)GlcNAc(b1-4)[Fuc(a1-6)]GlcNAc
# Procedure, shortened: as §1
# [5] = target: Gal(b1-4)GlcNAc(b1-2)Man(a1-3)[GlcNAc(b1-2)Man(a1-6)]Man(b1-4)GlcNAc(b1-4)GlcNAc
# Procedure, shortened: as §1
# [6] = target: Gal(b1-4)GlcNAc(b1-2)Man(a1-3)[Man(a1-6)]Man(b1-4)GlcNAc(b1-4)GlcNAc
# Procedure, shortened: as §1
# [7] = target: Gal(b1-4)GlcNAc(b1-2)Man(a1-6)Man(b1-4)GlcNAc(b1-4)GlcNAc
# Procedure, shortened: as §1
# [8] = target: Gal(b1-4)GlcNAc(b1-2)Man(a1-6)[GlcNAc(b1-2)Man(a1-3)]Man(b1-4)GlcNAc(b1-4)GlcNAc
# Procedure, shortened: as §1
# [9] = target: Gal(b1-4)GlcNAc(b1-2)Man(a1-6)[Man(a1-3)]Man(b1-4)GlcNAc(b1-4)GlcNAc
# Procedure, shortened: as §1
# [10] = target: Gal(b1-4)GlcNAc(b1-2)[Gal(b1-4)GlcNAc(b1-4)]Man(a1-3)[Gal(b1-4)GlcNAc(b1-2)Man(a1-6)]Man(b1-4)GlcNAc(b1-4)GlcNAc
# Procedure, shortened: as §1
# [11] = target: Gal(b1-4)GlcNAc(b1-2)[Gal(b1-4)GlcNAc(b1-4)]Man(a1-3)[Gal(b1-4)GlcNAc(b1-2)[Gal(b1-4)GlcNAc(b1-6)]Man(a1-6)]Man(b1-4)GlcNAc(b1-4)GlcNAc
# Procedure, shortened: as §1
# [12] = target: Gal(b1-4)GlcNAc(b1-3)Gal(b1-3)GlcNAc
# Procedure, shortened: as §1
# [13] = target: Gal(b1-4)GlcNAc(b1-3)Gal(b1-4)Glc
# Procedure, shortened: as §1
# [14] = target: Gal(b1-4)GlcNAc(b1-3)Gal(b1-4)GlcNAc
# Procedure, shortened: as §1
# [15] = target: Gal(b1-4)GlcNAc(b1-3)Gal(b1-4)GlcNAc(b1-3)Gal(b1-4)GlcNAc
# Procedure, shortened: as §1
# [16] = target: Gal(b1-4)GlcNAc(b1-3)Gal(b1-4)[Fuc(a1-3)]GlcNAc(b1-3)Gal(b1-4)[Fuc(a1-3)]GlcNAc
# Procedure, shortened: as §1
# [17] = target: Gal(b1-4)GlcNAc(b1-3)GalNAc
# Procedure, shortened: as §1
# [18] = target: Gal(b1-4)GlcNAc(b1-3)[Gal(b1-4)GlcNAc(b1-6)]Gal(b1-4)GlcNAc
# Procedure, shortened: as §1
# [19] = target: Gal(b1-4)GlcNAc(b1-3)[Gal(b1-4)GlcNAc(b1-6)]GalNAc
# Procedure, shortened: as §1
# [20] = target: Gal(b1-4)GlcNAc(b1-3)[GlcNAc(b1-6)]Gal(b1-4)GlcNAc
# Procedure, shortened: as §1
# [21] = target: Gal(b1-4)GlcNAc(b1-6)Gal(b1-4)GlcNAc
# Procedure, shortened: as §1
# [22] = target: Gal(b1-4)GlcNAc(b1-6)GalNAc
# Procedure, shortened: as §1
# [23] = target: Gal(b1-4)GlcNAc(b1-6)[Gal(b1-3)]GalNAc
# Procedure, shortened: as §1
# [24] = target: Gal3S(b1-3)GalNAc
# Procedure, shortened: as §1
# [25] = target: Gal3S(b1-3)GlcNAc
# Procedure, shortened: as §1
# [26] = target: Gal3S(b1-3)[Fuc(a1-4)]GlcNAc
# Procedure, shortened: as §1
# [27] = target: Gal3S(b1-4)Glc
# Procedure, shortened: as §1
# [28] = target: Gal3S(b1-4)Glc6S
# Procedure, shortened: as §1
# [29] = target: Gal3S(b1-4)GlcNAc
# Procedure, shortened: as §1
# [30] = target: Gal3S(b1-4)GlcNAc6S
# Procedure, shortened: as §1
# [31] = target: Gal3S(b1-4)[Fuc(a1-3)]Glc
# Procedure, shortened: as §1
# [32] = target: Gal3S(b1-4)[Fuc(a1-3)]Glc6S
# Procedure, shortened: as §1
# [33] = target: Gal3S4S(b1-4)GlcNAc
# Procedure, shortened: as §1
# [34] = target: Gal3S6S(b1-4)GlcNAc
# Procedure, shortened: as §1
# [35] = target: Gal3S6S(b1-4)GlcNAc6S
# Procedure, shortened: as §1
# [36] = target: Gal4S(b1-4)GlcNAc
# Procedure, shortened: as §1
# [37] = target: Gal4S6S(b1-4)GlcNAc
# Procedure, shortened: as §1
binder,measurement,setting,value
"SAG3 (Toxoplasma gondii), Q9BJ39 (protein) MQLWRRRAAGPASLGRQSLPLGCFFAAFGLCVLSAILGTGERGLFVAAGNSRRKITYFGTLTQKAPNWYRCSSTRAKEEVVGHVTLNKEHPDMTIECVDDGLGGEFLPLEGARSSYPRVCHIDAKDQDDCERNRGFLTDYIPGAKQYWYKIEKVEQNGEQSVLYKFTVPWILLPPAKQRYKVGCRYPNHEYCFVEVTVEPTPPMVEGKRVTCGYSESGPVNLEVDLSKNANFIEIRCGEQHHPQPSTYTLQYCSGDSVDPQKCSPQSLTNIFYDYSSSWWKGKLNGPDGATLTIPPGGFPEEDKSFLVGCSLTVDGPPFCNVKVRVAGNPRKWERGGGGHPGSGGLQPGTDGETQAGTGSSAGASSRMASVALAFLLGLLVHVAA",glycan array binding signal (z-score),[1],-0.23
same,glycan array binding signal (z-score),[2],-0.23
same,glycan array binding signal (z-score),[3],-0.335
same,glycan array binding signal (z-score),[4],0.616
same,glycan array binding signal (z-score),[5],-0.184
same,glycan array binding signal (z-score),[6],-0.158
same,glycan array binding signal (z-score),[7],0.039
same,glycan array binding signal (z-score),[8],0.359
same,glycan array binding signal (z-score),[9],-0.105
same,glycan array binding signal (z-score),[10],0.471
same,glycan array binding signal (z-score),[11],0.304
same,glycan array binding signal (z-score),[12],0.046
same,glycan array binding signal (z-score),[13],-0.485
same,glycan array binding signal (z-score),[14],0.013
same,glycan array binding signal (z-score),[15],-0.416
same,glycan array binding signal (z-score),[16],0.858
same,glycan array binding signal (z-score),[17],-0.162
same,glycan array binding signal (z-score),[18],-0.392
same,glycan array binding signal (z-score),[19],-0.475
same,glycan array binding signal (z-score),[20],-0.204
same,glycan array binding signal (z-score),[21],-0.066
same,glycan array binding signal (z-score),[22],-0.206
same,glycan array binding signal (z-score),[23],-0.245
same,glycan array binding signal (z-score),[24],0.032
same,glycan array binding signal (z-score),[25],-0.181
same,glycan array binding signal (z-score),[26],-0.458
same,glycan array binding signal (z-score),[27],-0.446
same,glycan array binding signal (z-score),[28],-0.122
same,glycan array binding signal (z-score),[29],0.012
same,glycan array binding signal (z-score),[30],-0.22
same,glycan array binding signal (z-score),[31],-0.443
same,glycan array binding signal (z-score),[32],0.951
same,glycan array binding signal (z-score),[33],-0.335
same,glycan array binding signal (z-score),[34],-0.055
same,glycan array binding signal (z-score),[35],-0.18
same,glycan array binding signal (z-score),[36],0.111
same,glycan array binding signal (z-score),[37],0.388
